These results are taken from publication PMC8748822.

Amino acid sequences for entries named in this document (tags omitted).
UniProt A5YKK6: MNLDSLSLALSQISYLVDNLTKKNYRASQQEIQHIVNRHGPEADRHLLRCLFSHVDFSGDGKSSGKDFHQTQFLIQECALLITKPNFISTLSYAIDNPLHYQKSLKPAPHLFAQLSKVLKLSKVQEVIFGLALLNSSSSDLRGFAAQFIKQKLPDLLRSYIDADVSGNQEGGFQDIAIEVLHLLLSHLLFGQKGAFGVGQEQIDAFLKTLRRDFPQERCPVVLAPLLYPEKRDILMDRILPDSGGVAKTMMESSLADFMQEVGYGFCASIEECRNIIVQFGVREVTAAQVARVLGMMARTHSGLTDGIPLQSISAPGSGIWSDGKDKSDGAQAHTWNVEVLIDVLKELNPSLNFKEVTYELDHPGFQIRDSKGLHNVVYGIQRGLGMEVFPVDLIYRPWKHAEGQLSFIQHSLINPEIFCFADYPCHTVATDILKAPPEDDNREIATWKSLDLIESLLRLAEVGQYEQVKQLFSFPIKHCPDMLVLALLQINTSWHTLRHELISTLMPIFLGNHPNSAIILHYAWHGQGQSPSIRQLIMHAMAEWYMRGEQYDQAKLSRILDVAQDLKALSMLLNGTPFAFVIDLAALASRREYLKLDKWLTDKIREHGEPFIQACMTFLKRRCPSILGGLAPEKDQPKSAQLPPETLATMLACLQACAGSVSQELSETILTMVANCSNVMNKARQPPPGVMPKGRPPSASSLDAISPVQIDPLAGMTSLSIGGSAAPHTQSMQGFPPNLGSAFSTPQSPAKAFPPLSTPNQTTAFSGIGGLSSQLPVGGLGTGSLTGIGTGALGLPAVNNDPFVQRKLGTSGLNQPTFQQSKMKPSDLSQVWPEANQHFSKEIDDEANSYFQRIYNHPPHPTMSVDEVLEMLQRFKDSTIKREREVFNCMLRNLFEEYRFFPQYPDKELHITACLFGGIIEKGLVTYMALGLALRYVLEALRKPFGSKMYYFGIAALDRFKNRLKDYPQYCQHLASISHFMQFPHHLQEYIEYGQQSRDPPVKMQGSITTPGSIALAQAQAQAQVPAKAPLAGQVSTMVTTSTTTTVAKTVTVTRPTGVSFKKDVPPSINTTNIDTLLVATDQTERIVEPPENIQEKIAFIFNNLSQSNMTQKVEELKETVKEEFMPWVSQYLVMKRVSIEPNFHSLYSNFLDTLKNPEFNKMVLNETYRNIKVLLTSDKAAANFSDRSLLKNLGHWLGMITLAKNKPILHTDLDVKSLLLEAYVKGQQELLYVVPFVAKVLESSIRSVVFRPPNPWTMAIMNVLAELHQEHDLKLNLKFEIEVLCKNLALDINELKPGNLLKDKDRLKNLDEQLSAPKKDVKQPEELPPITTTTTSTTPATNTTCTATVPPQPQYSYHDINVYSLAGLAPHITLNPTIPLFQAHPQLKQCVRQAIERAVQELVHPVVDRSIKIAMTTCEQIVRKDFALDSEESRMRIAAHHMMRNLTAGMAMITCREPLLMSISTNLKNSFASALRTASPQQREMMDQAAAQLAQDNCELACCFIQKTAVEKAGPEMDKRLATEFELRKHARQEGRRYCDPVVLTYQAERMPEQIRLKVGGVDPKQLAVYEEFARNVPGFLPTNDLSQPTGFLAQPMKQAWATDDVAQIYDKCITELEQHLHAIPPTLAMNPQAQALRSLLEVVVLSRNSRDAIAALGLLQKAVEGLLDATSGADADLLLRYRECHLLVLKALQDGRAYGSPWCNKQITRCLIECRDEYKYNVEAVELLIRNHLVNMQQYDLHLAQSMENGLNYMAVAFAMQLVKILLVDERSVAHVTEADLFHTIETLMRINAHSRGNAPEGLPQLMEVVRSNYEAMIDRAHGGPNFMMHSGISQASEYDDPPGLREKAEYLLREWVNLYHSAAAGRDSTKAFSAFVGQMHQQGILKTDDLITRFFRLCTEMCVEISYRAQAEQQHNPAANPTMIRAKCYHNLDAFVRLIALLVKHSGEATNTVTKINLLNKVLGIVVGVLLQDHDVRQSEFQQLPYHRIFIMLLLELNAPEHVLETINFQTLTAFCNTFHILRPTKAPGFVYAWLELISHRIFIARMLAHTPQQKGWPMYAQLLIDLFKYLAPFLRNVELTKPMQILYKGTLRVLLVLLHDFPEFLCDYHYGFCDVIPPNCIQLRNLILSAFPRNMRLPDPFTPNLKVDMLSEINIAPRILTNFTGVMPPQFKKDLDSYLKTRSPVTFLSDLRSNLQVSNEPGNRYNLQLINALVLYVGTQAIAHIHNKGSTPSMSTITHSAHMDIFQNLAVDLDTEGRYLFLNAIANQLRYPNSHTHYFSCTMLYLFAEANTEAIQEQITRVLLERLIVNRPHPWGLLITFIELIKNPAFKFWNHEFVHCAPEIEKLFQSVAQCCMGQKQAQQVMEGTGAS

No constants are given. Whether binding was seen depends on the method and setting. In cells and extracts the contact can be indirect. Some entries that bind do so weakly or less than the wild type.

In assay [1] the target is TASOR-DDK (pLenti-TASOR-myc-DDK) (human) (UniProt Q9UK61). Nature of the assay: co-IP.
In another assay the target is T1, TASORΔPARP-DDK (human) (UniProt Q9UK61).
T1 sequence: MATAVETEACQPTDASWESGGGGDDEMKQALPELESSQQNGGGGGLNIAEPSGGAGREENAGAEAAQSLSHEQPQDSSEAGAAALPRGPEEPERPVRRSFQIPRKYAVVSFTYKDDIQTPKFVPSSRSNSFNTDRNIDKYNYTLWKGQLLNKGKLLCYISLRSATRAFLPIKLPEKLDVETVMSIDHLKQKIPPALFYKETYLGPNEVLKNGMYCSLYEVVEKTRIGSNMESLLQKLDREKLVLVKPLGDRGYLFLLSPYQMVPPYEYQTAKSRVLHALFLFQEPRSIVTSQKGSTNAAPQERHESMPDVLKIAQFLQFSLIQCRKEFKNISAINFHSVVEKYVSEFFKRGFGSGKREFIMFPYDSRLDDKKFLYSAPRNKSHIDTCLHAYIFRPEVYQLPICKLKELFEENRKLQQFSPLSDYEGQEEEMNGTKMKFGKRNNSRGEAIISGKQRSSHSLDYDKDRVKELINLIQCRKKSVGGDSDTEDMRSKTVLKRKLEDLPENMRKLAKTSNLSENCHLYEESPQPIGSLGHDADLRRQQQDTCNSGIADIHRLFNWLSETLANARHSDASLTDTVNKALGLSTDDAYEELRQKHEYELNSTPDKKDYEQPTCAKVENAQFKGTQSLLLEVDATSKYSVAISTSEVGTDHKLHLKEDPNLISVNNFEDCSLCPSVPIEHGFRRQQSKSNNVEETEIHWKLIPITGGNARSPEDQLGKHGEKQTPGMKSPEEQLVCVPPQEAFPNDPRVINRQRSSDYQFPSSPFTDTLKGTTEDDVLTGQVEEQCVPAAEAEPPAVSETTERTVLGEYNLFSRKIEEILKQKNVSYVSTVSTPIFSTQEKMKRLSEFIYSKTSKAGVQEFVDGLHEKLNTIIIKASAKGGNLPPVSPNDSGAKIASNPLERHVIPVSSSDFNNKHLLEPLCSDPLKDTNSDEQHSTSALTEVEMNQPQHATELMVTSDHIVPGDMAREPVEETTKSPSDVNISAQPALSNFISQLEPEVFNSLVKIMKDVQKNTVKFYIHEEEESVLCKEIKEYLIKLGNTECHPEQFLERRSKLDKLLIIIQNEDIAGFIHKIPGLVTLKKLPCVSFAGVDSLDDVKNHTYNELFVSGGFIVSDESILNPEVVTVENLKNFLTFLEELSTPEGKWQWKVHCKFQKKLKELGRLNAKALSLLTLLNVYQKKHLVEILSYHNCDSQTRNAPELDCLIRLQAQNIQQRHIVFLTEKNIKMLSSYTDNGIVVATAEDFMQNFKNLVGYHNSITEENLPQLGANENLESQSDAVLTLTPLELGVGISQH
The experiment in a line: co-IP.

Assay [2] concerns the target endogenous TASOR (human (endogenous in HeLa and in Jurkat-derived J-Lat A1)) (UniProt Q9UK61). The experiment in a line: co-IP; TASOR or rabbit IgG immunoprecipitation in J-Lat A1 lysates; western blot.
Assay [3] shares this target. Nature of the assay: co-IP; endogenous immunoprecipitation (anti-TASOR, anti-CNOT1 or anti-MTR4, 4 µg antibody overnight, protein A/G magnetic beads) from the nuclear fraction of HeLa HIV-1 LTR-ΔTAR-Luc cells; western blot. In general terms: In western blotting, separated proteins are transferred to a membrane and probed.

For “endogenous CNOT1 (CCR4-NOT transcription complex subunit 1) (from UniProt A5YKK6 1-2376)”, the binding entry in assay [1] was “binds”; in the assay with TASORΔPARP-DDK (human) it was “no binding”; in assay [2], “binds”; in assay [3], “binds”.
